Data taken from PubChem BioAssay AID488969 (Vanderbilt High Throughput Screening Facility, 2010).
In all, about 110,000 compounds were measured (“z-score”: median about -0.1, highest 2% from about 2 on). Some of the results follow.

Molecular target: Metabotropic glutamate receptor 8 (Rattus norvegicus) (UniProt P70579)
Assay: rat mGluR8 modulators via GIRK flux, primary screen, cell-based, thallium flux, HTS (AID 488969)
Settings: HEK293 rat mGluR8, GIRK (G protein-gated inwardly rectifying potassium channel) thallium flux, FluoZin2; at 10 µM; stronger effect = higher value; submaximal glutamate (EC20) added with thallium

UniProt P70579, sequence (P70579 whole entry, looked up): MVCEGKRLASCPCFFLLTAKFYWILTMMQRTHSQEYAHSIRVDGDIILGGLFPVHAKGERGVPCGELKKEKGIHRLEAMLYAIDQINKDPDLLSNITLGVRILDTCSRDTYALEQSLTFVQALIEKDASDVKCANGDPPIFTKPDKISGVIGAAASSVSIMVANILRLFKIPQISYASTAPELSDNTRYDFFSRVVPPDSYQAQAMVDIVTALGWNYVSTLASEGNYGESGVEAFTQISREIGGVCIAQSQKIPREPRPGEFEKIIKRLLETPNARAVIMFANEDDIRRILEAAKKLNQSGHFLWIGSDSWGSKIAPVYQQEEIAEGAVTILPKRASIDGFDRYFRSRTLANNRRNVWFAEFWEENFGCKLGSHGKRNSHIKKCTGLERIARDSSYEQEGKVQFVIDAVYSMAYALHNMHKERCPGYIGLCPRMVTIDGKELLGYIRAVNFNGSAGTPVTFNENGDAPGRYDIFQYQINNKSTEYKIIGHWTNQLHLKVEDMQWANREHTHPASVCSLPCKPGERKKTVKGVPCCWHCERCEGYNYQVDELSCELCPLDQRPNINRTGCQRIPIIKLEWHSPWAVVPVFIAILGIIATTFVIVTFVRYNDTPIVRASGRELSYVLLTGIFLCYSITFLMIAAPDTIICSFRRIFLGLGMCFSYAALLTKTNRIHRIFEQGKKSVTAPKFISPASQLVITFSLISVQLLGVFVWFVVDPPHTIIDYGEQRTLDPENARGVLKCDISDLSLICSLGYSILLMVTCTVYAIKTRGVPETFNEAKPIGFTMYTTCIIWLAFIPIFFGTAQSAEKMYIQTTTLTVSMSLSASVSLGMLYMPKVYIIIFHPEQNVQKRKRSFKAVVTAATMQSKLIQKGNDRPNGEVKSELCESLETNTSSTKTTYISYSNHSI

| Compound | z-score |
| --- | --- |
| COc1cccc(-c2cc(C(=O)NCc3ccco3)no2)c1 | -0.142 |
| O=C(NCCC1=CCCCC1)C1CCN(S(=O)(=O)c2cccc3cccnc23)CC1 | 0.278 |
| CCOC(=O)N1CCN(C(=O)c2cccc(OC)c2OC)CC1 | 0.308 |
| COc1cccc(C(=O)CSc2nnc(-c3ccco3)n2CC2CCCO2)c1 (stereo not drawn) | -0.367 |
| O=C(Oc1cc(=O)oc2ccccc12)c1ccco1 | -1.36 |
| COc1ccc(-c2cc(C(=O)OCC(=O)Nc3ccc4c(c3)OCO4)c3ccccc3n2)cc1 | 0.618 |
| Cn1c(=O)n(Cc2ccc(F)cc2)c(=O)c2c1nc1n2CCCN1Cc1ccccc1 | -0.855 |
| CCC(=O)Nc1ccc2c(c1)nc(CCN1CCN(C)CC1)n2C | 0.884 |
| CC1=C(OC(=O)C(C)(C)C)C(C)(C)C(c2ccccc2)OC1=O (stereo not drawn) | -0.318 |
| Cc1nc2ccc3nc(NC(=O)c4ccco4)sc3c2s1 | 0.0103 |
| FC(F)(F)c1cc(-c2ccco2)nc(NCCc2ccccc2)n1 | -0.141 |
| NC(=O)NC(=O)Nc1ccccc1Cl | 0.0822 |
| Nc1c(S(=O)(=O)c2cccs2)c2nc3ccccc3nc2n1CC1CCCO1 (stereo not drawn) | -0.113 |
| CCCN1C(=O)SC(CC(=O)Nc2ccc(Br)cc2)C1=O (stereo not drawn) | -0.212 |
| COc1ccc(-c2cn3c(C)c(C(=O)N4CCCc5ccccc54)sc3n2)cc1 | -0.413 |
| COc1ccc(-n2c(SCC(=O)N3CCCCC3C)nnc2-c2cccnc2)cc1 (stereo not drawn) | 0.892 |
| c1ccc2cc(OCc3nc4ccccc4[nH]3)ccc2c1 | -0.188 |
| CCCCN1C(=O)C2C(C(=O)Nc3cccc(OC)c3)C3C=CC2(O3)C1C(=O)NC1CCCCC1C (stereo not drawn) | -0.922 |
| CCCC(=O)NC(=S)Nc1ccccc1C(F)(F)F | 0.25 |
| COc1ccc(Cl)cc1NC(=O)C(C)Sc1nncn1C (stereo not drawn) | -0.0847 |
| Cc1ccccc1NC(=O)CSc1nc(N)c(C#N)c(-c2cccs2)c1C#N | -1.39 |
| CCOCCCNC(=O)CCC(=O)NNc1nc2ccccc2c2nc(-c3ccccc3)nn12 | 0.25 |
| C1CCc2nnc(-c3nnc4n3CCCCC4)n2CC1 | 1.92 |

| Compound | z-score |
| --- | --- |
| Cc1[nH]n(-c2ccccc2)c(=O)c1/C=N/n1c(C)nc2ccccc2c1=O | 0.557 |
| Cc1ccc(S(=O)(=O)c2cc(C#N)c(=O)[nH]c2N)cc1 | -0.153 |
| COc1ccc(C(=O)COC(=O)[C@H](C)Nc2ccc(C(F)(F)F)cc2[N+](=O)[O-])cc1 | 0.00425 |
| Cc1ccc(C)c(NC(=O)c2cc3c([nH]c4ccccc43)c(C)n2)c1 | -0.144 |
| Cc1cc(=O)oc(C)c1C(=O)NCCc1ccc(F)cc1 | -0.0519 |
| COc1ccccc1CC(=O)Nc1ccccc1O | 0.258 |
| COC(=O)c1cc(Cl)c(NC(=O)/C=C/c2ccc(OC)c(OC)c2)cc1OC | -0.134 |
| CCCCC(CC(O)COCC(C)C)C(=O)NNC(=S)Nc1ccccc1 (stereo not drawn) | 0.0716 |
| CC(=O)C1=C(O)C(=O)N(c2cccc(C(=O)O)c2)C1c1ccc(F)cc1 (stereo not drawn) | -0.153 |
| Cc1ccc(C(=O)/C=C/Nc2ccccc2C(N)=O)cc1 | 0.189 |
| COc1ccc2[nH]c(=O)c(CN(CCCN(C)C)C(=O)Nc3ccccc3)cc2c1 | -0.404 |
| Cc1cc(Cl)c(S(=O)(=O)N2CCN(c3ccc(F)cc3)CC2)cc1OCC(=O)NC1CCCCC1 | 0.177 |
| CS(=O)(=O)N1CCC(C(=O)N2CCC(Cc3ccccc3)CC2)CC1 | -0.152 |
| CC(C)OC(=O)C(CC(=O)O)NCc1ccccc1 (stereo not drawn) | -0.203 |
| Cc1c(NC(=O)C2CCN(S(=O)(=O)c3ccc(Cl)cc3)CC2)c(=O)n(-c2ccccc2)n1C | -0.518 |
| CCN(C(=O)c1ccc(NC(C)=O)cc1)c1ccccc1C | 0.0987 |
| Cc1cc(N)ccc1N1CCCC1 | -0.246 |
| CCOc1ccc(-n2nnnc2-c2nc3ccccc3s2)cc1 | -0.319 |
| CCOC(=O)c1cnc2c(C)cccc2c1NCCc1ccc(OC)c(OC)c1 | -0.264 |
| COC(=O)c1c(NC(=O)C2CC(=O)NN2Cc2ccccc2)sc(C)c1C (stereo not drawn) | -0.118 |
| COc1ccc(/C=C/C(=O)NC(C)C)cc1Br | -0.339 |
| Cc1cc(C)nc(NC2=NC3CCCCC3N2)n1 (stereo not drawn) | -0.196 |
| CCNCc1cc2cc(C)ccc2[nH]c1=O | -0.392 |

| Compound | z-score |
| --- | --- |
| COc1ccc(C(=O)N2CCN(c3ncnc4c(-c5ccccc5)nsc34)CC2)cc1 | -0.0928 |
| Cc1cc(NC2C3CC4CC(C3)CC2C4)n2nnnc2n1 (stereo not drawn) | -0.253 |
| CCn1c(=NC(=O)CN2C(=O)CCC2=O)sc2c(OC)ccc(OC)c21 | -0.0159 |
| COc1ccc2[nH]c(C)c(CCN3C(=O)C4CC=CCC4C3=O)c2c1 (stereo not drawn) | -0.193 |
| O=C(NC1CCCc2ccccc21)c1cncc(Br)c1 (stereo not drawn) | 0.164 |
| NS(=O)(=O)c1cc(C(=O)N2CCc3ccccc32)c(Cl)cc1Cl | 0.105 |
| Cc1ccsc1/C=N/n1c(=S)[nH]nc(C)c1=O | -0.431 |
| COc1ccc(C(=O)NC2CC(C)(C)Cc3occc32)cc1 (stereo not drawn) | -0.102 |
| N#Cc1c(Nc2ccccc2)sc(C(=O)c2ccccc2)c1N | -0.209 |
| O=C(Cc1c(C(=O)O)[nH]c2ccccc12)Nc1ccc2c(c1)OCO2 | 0.0702 |
| O=C(c1c(F)c(F)c(F)c(F)c1F)N(Cc1ccccc1)Cc1ccccc1 | 0.0492 |
| CCOC(=O)C(NCCCO)c1ccccc1 (stereo not drawn) | -0.247 |
| CCOc1ccc(C(=O)Nc2ccc3c(c2)OCO3)cc1OCC | -0.0217 |
| COCC(=O)n1nc(-c2ccc(Cl)cc2)nc1NCc1ccc(F)cc1 | -0.233 |
| CCNC(=O)O/N=C(\C)c1sc(-c2ccccc2)nc1C | -0.481 |
| CCOC(=O)c1c(C)[nH]c(C(=O)CSc2nc3ccccc3o2)c1C | 0.133 |
| COCCNC(=S)N/N=C/c1c(C)[nH]c2ccccc12 | -0.305 |
| CCN1C(=O)/C(=C\N(C(C)=O)c2ccccc2)OC1=S | 0.215 |
| CCN(CCCNC(=O)CCc1nc(-c2ccc(C)cc2)no1)c1cccc(C)c1 | -0.28 |
| CCC(=O)N1CCc2cc(Br)cc(S(=O)(=O)CCC(=O)NCC3CCCO3)c21 (stereo not drawn) | -0.168 |
| COC(CNC(=O)c1ccc(N2CCCC2=O)cc1)OC | -0.0338 |
| Cc1ccc(S(=O)(=O)N2CCC(CN3C(=O)c4cccc5cccc(c45)C3=O)CC2)cc1 | -0.319 |
| Cc1ccc(-c2noc(CN(C(=O)c3cccs3)C(C)C)n2)cc1 | -1.1 |

| Compound | z-score |
| --- | --- |
| O=C(COC(=O)Cc1ccccc1[N+](=O)[O-])NCc1ccc(F)cc1 | -0.357 |
| O=C(COC(=O)C1CC1)NCc1ccccc1Cl | 0.144 |
| COc1ccc(OCCCCOc2ccccc2Cl)cc1 | -0.0386 |
| CCC(Sc1nc2ccccc2s1)C(=O)Nc1cc(C)on1 (stereo not drawn) | -0.499 |
| Cc1cc(NC(=O)c2ccc(S(=O)(=O)N(C)C)cc2)no1 | 0.501 |
| CC(=O)c1c(O)cc(C(C)C)n(-c2ccccc2)c1=O | 0.1 |
| COc1cccc(/C=N/NC(=O)c2ccc(=O)n(C)c2)c1OC | -0.164 |
| COc1ccc(S(=O)(=O)N2CCOCC2)cc1NC(=O)COC(=O)C1COc2ccccc2O1 (stereo not drawn) | -0.525 |
| O=C(Nn1c(Cc2cccs2)nc2ccccc2c1=O)c1ccc(F)c(F)c1 | 0.104 |
| Cc1cc(-c2nnco2)c(C)n1-c1ccc(F)cc1 | -0.929 |
| CCCN(Cc1cc2cccc(C)c2[nH]c1=O)S(C)(=O)=O | 0.108 |
| CCCCN(CCCC)C(=O)c1nsnc1-c1ccccc1O | -0.195 |
| CCSc1nnc(NC(=O)Cc2ccccc2OC)s1 | 0.186 |
| COc1cccc(C2(c3cccc(OC)c3)CC2C(=O)Nc2ccc(F)cc2)c1 (stereo not drawn) | -0.642 |
| COc1ccc(-c2nc3c(c(=O)[nH]c(=O)n3Cc3ccccc3)n2Cc2ccccc2)cc1 | -0.593 |
| C=CCc1cc(C)ccc1OCCOCCn1ccnc1 | -0.0974 |
| Cc1ccc(S(=O)(=O)N2CCN(CC(=O)NC3CCCc4ccccc43)CC2)cc1C (stereo not drawn) | -0.462 |
| COc1ccc(C2CC(=O)c3cnc(NC(=O)c4ccccc4)nc3C2)c(OC)c1 (stereo not drawn) | -0.297 |
| COc1nc(N/N=C/c2ccccc2F)nc(N2CCCCC2)n1 | -0.07 |
| Nc1c(C(=O)NC2CCCC2)c2nc3ccccc3nc2n1N | -0.553 |
| Cc1cc(C)nc(Nc2n[nH]c(COc3ccc(Cl)cc3)n2)n1 | 0.163 |
| CC(C)Cn1c(-c2ccccc2)nc2ccccc2c1=O | 0.193 |
| CCOC(=O)C1C(=O)C=C(c2cccs2)CC1c1ccccc1 (stereo not drawn) | -0.493 |

| Compound | z-score |
| --- | --- |
| COCC(C)NC(=O)COc1ccc(Cl)cc1Cl (stereo not drawn) | 0.534 |
| CP(C)(=O)CCP(=O)(c1ccccc1)c1ccccc1 | -0.814 |
| O=C(C1CCCCN1S(=O)(=O)c1ccccc1)N1CCCCC1 (stereo not drawn) | 1.27 |
| Cn1c(Cc2cccc3ccccc23)nnc1SCc1ccc([N+](=O)[O-])cc1 | 0.888 |
| CCN(c1cccc(C)c1)C(C(=O)Nc1ccc(OC)cc1)c1cc2c(cc1[N+](=O)[O-])OCO2 (stereo not drawn) | -0.152 |
| COc1ccc(N2C(=O)CCC2(C#N)c2ccc(OC)cc2)cc1 (stereo not drawn) | 0.0527 |
| CSc1ccc(/C=N/NC(=O)CN2CCN(Cc3ccccc3Cl)CC2)cc1 | -0.193 |
| COc1ccc(S(=O)(=O)N[C@H](C(=O)N2CC[C@@]3(O)CCCC[C@H]3C2)c2ccccc2)cc1 | -1.15 |
| CC(C)Cn1cc(C(=O)N2CCN(c3ccccn3)CC2)c2c3ccccc3n(C)c2c1=O | -2.43 |
| COc1ccc(Br)cc1C(=O)Nc1cccc(C)c1 | -0.126 |
| CN(C(=O)C1CCOC1)c1nnc(-c2ccccn2)s1 (stereo not drawn) | 0.442 |
| CCOc1ccc(OCC)c(-c2c(=O)n(OCc3ccc(C(C)(C)C)cc3)c3ccccc3[n+]2[O-])c1 | -0.137 |
| CCCCC(O)(C(NC=O)C(=O)OC)C(F)(F)F (stereo not drawn) | -0.227 |
| COc1ccc(OCc2ccc(C(=O)NN)cc2)cc1 | 0.222 |
| CCOc1ccccc1NC(=O)C(=O)NCC1CCCN1CC (stereo not drawn) | -0.105 |
| C=C(C)c1cccc(C(C)(C)NC(=O)NC2CCCC2)c1 | -0.875 |
| COC(=O)C1=C(C)OC(N)=C(C#N)C1c1cc(C)sc1C (stereo not drawn) | -0.593 |
| CCc1cccc(OCCCCNCCO)c1 | 0.564 |
| COCCCn1c(Cc2csc(Nc3cccc(Cl)c3)n2)nnc1SCC(=O)OC1CCCCC1 | -0.0982 |
| Cc1ccc(NC(=O)Cc2noc3ccccc23)cc1 | -0.133 |
| O=C(Cc1ccc(F)cc1)N/N=C/c1ccncc1 | 0.586 |
